Results reported in article PMC12136788.
The other results are listed elsewhere or left out.

T1: UNK ZnF1-3 (human, UniProt Q9C0B0 31-174)
T1 sequence: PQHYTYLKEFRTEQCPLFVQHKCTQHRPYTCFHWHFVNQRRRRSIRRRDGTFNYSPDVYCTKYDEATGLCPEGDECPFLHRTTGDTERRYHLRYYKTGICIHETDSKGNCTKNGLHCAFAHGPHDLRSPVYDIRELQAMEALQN

B1: chr2:104499440:104499441:+_ENSMUSG00000027176_ENSMUST00000028599|mus_mus|FALSE|FALSE (ssRNA)
RNA: GGGAGUUCUACAGUCCGACGAUCUUCUCCAGACUUCUCAGGAGGAAGGCUUCCAGACGUUAGAACUCUUUCAAACAAAACUCGAGUAUUAUUGUCCUCAUUGAGGUGAGAGAGAUAGUCAAUAUAAGCCAAAACAUAUUCUGGCAACAGAGGAUUGAGCAUCA
B2: chr8:13020401:13020402:+_ENSMUSG00000031442_ENSMUST00000123811|mus_mus|FALSE|FALSE (ssRNA)
RNA: GGGAGUUCUACAGUCCGACGAUCCCAGUAAUGGCUUUGCAAGCCAUAGGGCAGGGGAGGAGGGUGUUUUUCCUGGACAUACAGUGGUGAACGAGCCUCGGUGGCCUCCCAUGGCAGCAGGGUGAGGAGACAGGGAGGGACCGUCAACAGAGGAUUGAGCAUCA
B3: chr17:5391764:5391765:+_ENSG00000167842_ENST00000381165|hu_hu|motif|central (ssRNA)
RNA: GGGAGUUCUACAGUCCGACGAUCUGAGCUUCAAUGACCUAUAGCUCCACCUUUUAGCCACCUGGCUCUUGAUAUUUGUAACGGCUCUUCCAAACUGCUUCUACUUUUUGACUACUGCCUCCUACACAAUUCUUCCAAUUCUUACAACAGAGGAUUGAGCAUCA
B4: chr7:141441981:141441982:+_ENSG00000106028_ENST00000265304|hu_mus|hu_hu_hu_mus_False|48_48 (ssRNA)
RNA: GGGAGUUCUACAGUCCGACGAUCCUCAUGUCUUACAAACUGACGAAAUACCUGUAACACAGGUCUUCGAAACAUGGCUUCUGUUUUCUUUUCUUACUAAUCUUUAGGCUUUUCCUAAAGGAAAGAAAGAAAAGAGAAAAAUGACAACAGAGGAUUGAGCAUCA
B5: chrX:71549762:71549763:+_ENSMUSG00000019087_ENSMUST00000019231|mus_mus|mus_mus_mus_hu_False|28_68 (ssRNA)
RNA: GGGAGUUCUACAGUCCGACGAUCAAACCCGUGUACUUCUUAUUGUUAGCACAACAUCACCAGAAAAAAAACAUAACAGCCAAGCAGGACAGACAGUUAAGUAGUACUUCCACACCUCCAAACUCAGGGAGCCCUAUAACCUUACAACAGAGGAUUGAGCAUCA
B6: 96352238_96353342_2103_CDS_ENSG00000119969_ENST00000348459|human|control|control (ssRNA)
RNA: GGGAGUUCUACAGUCCGACGAUCUGCUGCAGUCAGAUUAAUGCCCAGGCCACCAGCUCGUGUACUCACUAAGAAGAUAAACACCUCUGGAUCCGUGUUGAAGCUGUGCAUGUUUUUUUCUCUCUCUGAGUAAGACAUGGACCCCAACAGAGGAUUGAGCAUCA
B7: chr17:7478442:7478443:+_ENSG00000161960_ENST00000293831|hu_mus|FALSE|FALSE (ssRNA)
RNA: GGGAGUUCUACAGUCCGACGAUCUGAUAUGGCAAAUGUAGCUGUUUUCCCAGUCCCAGACUGGGCUUGAGCAAUCACAUCAUAACCCUUGAUACAAGGAAGAAUAGCUCGCUGCUGGAUGGCAGAGGGCUUCUCAAAACCAUACAACAGAGGAUUGAGCAUCA
B8: chr7:30890253:30890254:+_ENSMUSG00000049421_ENSMUST00000108200|mus_hu|FALSE|FALSE (ssRNA)
RNA: GGGAGUUCUACAGUCCGACGAUCUUCCUUCUGGCUAAAAGCUUUUCCACACUCACUACAUUUAAAGGGCUUCUUUCCAGUAUGGAUGUUCUGAUGUUUAAUGAGGUAUUGCUUCUGGCUGAAGGCUCUUCCACACUGAUUACACAACAGAGGAUUGAGCAUCA
B9: chr1:129365822:129365823:+_ENSMUSG00000036155_ENSMUST00000038361|mus_hu|FALSE|FALSE (ssRNA)
RNA: GGGAGUUCUACAGUCCGACGAUCAUUUAAAAUUGCUUUCACUGCAUCCUCUACUUCCUCCUGAUUGUUGAGGUCAACAGUCCACACAUGUGGCCGCCCGAUGAAAACUUCAGCGUAAGGAUGCUGGGAUGUCAGCUCUCUCAGCAACAGAGGAUUGAGCAUCA
B10: chr14:57575763:57575764:+_ENSMUSG00000021945_ENSMUST00000022511|mus_mus|FALSE|FALSE (ssRNA)
RNA: GGGAGUUCUACAGUCCGACGAUCCACUGUUUUCAGGCCAAAAUACUUAGUGUUAAAGUAGAAUAGGGUAUUCAAAAGUGCUACUGGAGAGUGGGAUCCUAGUUGUUUUAUCCUCCAGAGAUAGUCUUCUUCAACUCGAGAGAACAACAGAGGAUUGAGCAUCA
B11: chrX:69798090:69798091:-_ENSMUSG00000031343_ENSMUST00000055966|mus_mus|mus_mus_mus_hu_False|48_108 (ssRNA)
RNA: GGGAGUUCUACAGUCCGACGAUCAAGUCCCCAGGUUCUUGUCGUCUUGAUUCCCCUUGACCAGUGGUUCCAGGGAGAAUAUUAAUCAGGAGAAGAAUCCCAAGGCUGGUCAUGUAACAGUGACUUGUUUGUGUGAUUAUCAUCCAACAGAGGAUUGAGCAUCA
B12: chr12:104381838:104381839:+_ENSG00000139372_ENST00000392872|hu_hu|motif|central (ssRNA)
RNA: GGGAGUUCUACAGUCCGACGAUCACAAACAGCAAUGAUGCAGAUAAAGAAUCUUUAAAAUUAUUGGCUUACUGGAUUUACCGGGCAAGAAAAAUUCUAUAUUACUUAUUUUAGUACAUCUCAUGUACAUAAAGCACCAGUUUACAACAGAGGAUUGAGCAUCA
B13: chr15:81680702:81680703:-_ENSMUSG00000048546_ENSMUST00000050467|mus_hu|FALSE|FALSE (ssRNA)
RNA: GGGAGUUCUACAGUCCGACGAUCAAGGGAGUGGGGACUGGGGUCAGACCUAUUCAGGUGGCAGGGCCCGAGAAGGCCUGCUGAGGUUGGAUGGCUUUGAGUGCGAGGAUAGCUGGGUGACAGAGGCAGUGACACGGGCCAGCCCAACAGAGGAUUGAGCAUCA
B14: chr2:129036499:129036500:+_ENSMUSG00000027397_ENSMUST00000028880|mus_mus|FALSE|FALSE (ssRNA)
RNA: GGGAGUUCUACAGUCCGACGAUCGAAUACUGCCAUGAUAGCGGCACUGAUAACCCCAGAGAUGGGGACCGUGACAAACCAGGCCAUAAAAAUGUUUCGAAACAGUCGCCAGUCAACAGCCUUCUUUGAUCGGAGCCAGCCAACCAACAGAGGAUUGAGCAUCA

Each binder was assayed against T1, UNK ZnF1-3 (assay: nsRBNS (natural sequence RNA bind-n-seq); RBNS binding buffer (assumed for nsRBNS): 25 mM Tris pH 7.5, 150 mM KCl, 3 mM MgCl2, 0.01% Triton X-100, 500 ug/ml BSA, 20 U/ml SUPERase-In, 4 C; UNK is unkempt and MSI1 is Musashi-1; names of the RNAs are library labels; protein concentration not given here; high values mean tight binding).

For B1, which binding signal is on record?
Its binding signal is 1.51 enrichment R.

For B2, which binding signal is on record?
The binding signal was 0.89 enrichment R.

Which binding signal does the source give for B3 here?
The binding signal was 0.761 enrichment R.

How did the binding signal turn out when B4 was run?
Its binding signal is 0.393 enrichment R.

How did the binding signal turn out when B5 was run?
The binding signal was 2.21 enrichment R.

How did the binding signal turn out when B6 was run?
Its binding signal is 0.955 enrichment R.

B7 was tested. Which binding signal did it give?
The binding signal was 0.624 enrichment R.

How did the binding signal turn out when B8 was run?
The binding signal was 0.533 enrichment R.

Which binding signal does the source give for B9 here?
The binding signal was 0.935 enrichment R.

For B10, which binding signal is on record?
Its binding signal is 1.75 enrichment R.

Which binding signal does the source give for B11 here?
Its binding signal is 0.855 enrichment R.

Which binding signal does the source give for B12 here?
The binding signal was 1.24 enrichment R.

Which binding signal does the source give for B13 here?
The binding signal was 1.33 enrichment R.

Which binding signal does the source give for B14 here?
The binding signal was 1.47 enrichment R.
